# This list was built around the results that the source calls inconclusive (neither active nor inactive); the mix of calls is not that of the screen. For some of these results: A potency beside an inconclusive call is a rough fit, not a confirmed value. Activity calls are given as the source filed them. The call rests on the fitted dose curve; in most records, active means well fitted curve in the direction sought with a large enough effect; inconclusive means small, poorly fitted or top-dose-only effect, or another doubt; inactive means no such curve, though single readings can be large; an effect the other way counts as inactive or inconclusive.
# What was measured:
# [1] = P-glycoprotein substrates identified in KB-8-5-11 adenocarcinoma cell line, qHTS therapeutic library screen (AID 1346987); settings: activity change, negative = cytotoxicity: at 44.5 µM (top of the series); further: nearly all actives have a fitted effect of over 65% in size; on activity change, negative = cytotoxicity: on the % scale 0 is the no-effect control and ±100 the full control effect
# Outline: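 KB-8-5-11: colchicine-selected sub-line of KB-3-1 over-expressing P-gp; assay medium lacked colchicine. 72 h drug exposure at 37 degree C, CellTiter-Glo.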
# [2] = tested on: Zika virus NS2B-NS3 protease (linked construct); test: Primary screen NINDS Rhodamine qHTS for Zika virus inhibitors (AID 1347160); further: nearly all actives have a fitted effect of over 55% in size; on activity change, negative = inhibition: on the % scale 0 is the no-effect control and ±100 the full control effect
# Outline: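 Purified NS2B-NS3 protease with the NS2B hydrophilic domain joined by a flexible linker (25 nM) in 10 mM Tris-HCl pH 8.0, 0.01% Tween 20, preincubated 15 min at RT with compound; Rhodamine110 peptide substrate 1.5 µM; fluorescence change over 15 min; 4-parameter Hill fit.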
# [3] = Primary qHTS for inhibitors of nuclear receptor binding SET domain protein 2 (NSD2) in an isogenic RCH-ACV NSD2 p.E1099K mutant (9B) (AID 1645876); settings: activity change, negative = viability loss: at 44.9 µM (top of the series) unless noted; further: nearly all actives have a fitted effect of over 70% in size; on activity change, negative = viability loss: on the % scale 0 is the no-effect control and ±100 the full control effect
# HaCat = test: Cytotoxic Profiling of Annotated Libraries Using Quantitative High-Throughput Screening (AID 1296008); settings: Five cell lines viability, CellTiter-Glo ATP luminescence, 48-72 h; max response: stronger effect = lower value; further: nearly all actives have a fitted effect of over 60% in size
# Outline: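 Cells exposed to compounds for 48 or 72 hr at 37 degrees Celsius. Viability read as ATP-coupled luminescence with CellTiter-Glo after 10 min at room temperature.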
# C33A = test: Primary qHTS to identify gynecologic anti-cancer compounds using libraries of approved drugs and bioactive compounds (AID 1345084); settings: Gynecologic cancer cell panel viability, ATPlite luminescence, 48 h; series mostly up to 57.5 µM; further: nearly all actives have a fitted effect of over 55% in size; on activity change, negative = cytotoxicity: on the % scale 0 is the no-effect control and ±100 the full control effect
# Outline: (§1)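 Measured: luminescence after ATPlite addition (15 min, RT). Exposure: 48 h, 37 C, 5% CO2.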
# [4] = Primary fluorescence-based thiol-reactive (MSTI) qHTS assay for identification of artifact compounds. (AID 1845221);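 further: thiol-reactive compounds lower the probe fluorescence signal; nearly all actives have a fitted effect of over 65% in size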
# Outline: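 Reactivity toward the thiol probe MSTI (4 uM) is scored by fluorescence at Ex/Em 525/598 nm after 1 h at room temperature. Acetyl-MSTI and MSTI define the activity scale.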
# CAOV3 = test: Primary qHTS to identify gynecologic anti-cancer compounds using libraries of approved drugs and bioactive compounds (AID 1345084); settings: Gynecologic cancer cell panel viability, ATPlite luminescence, 48 h; series mostly up to 57.5 µM; further: nearly all actives have a fitted effect of over 55% in size
# Outline: as §1
# SKOV3 = test: as above; settings: Gynecologic cancer cell panel viability, ATPlite luminescence, 48 h; series mostly up to 57.5 µM
# Outline: as §1
# Tov-21-G = test: as above; settings: Gynecologic cancer cell panel viability, ATPlite luminescence, 48 h; series mostly up to 57.5 µM
# Outline: as §1
# [5] = tested on: Zika virus NS2B-NS3 protease (unlinked complex); test: Primary screen GU Rhodamine qHTS for Zika virus inhibitors: Unlinked NS2B-NS3 protease assay (AID 1347159); settings: Recombinant ZIKV NS2B-NS3 protease, Rhodamine110 substrate fluorescence; activity change, negative = inhibition: at 107 µM (top of the series); further: nearly all actives have a fitted effect of over 60% in size
# Outline: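 Noncovalent NS2B hydrophilic domain/NS3 protease complex (25 nM final) in 10 mM Tris-HCl pH 8.0, 0.01% Tween 20, preincubated 15 min with compounds (up to 114 microM), then 1.5 microM Rhodamine110 substrate. Fluorescence change over 15 min fitted to 4-parameter Hill.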
# [6] = Primary qHTS for inhibitors of nuclear receptor binding SET domain protein 2 (NSD2) in an RCH-ACV wild type WT cells (2C) (AID 1645877); settings: activity change, negative = cell killing: at 44.9 µM (top of the series) unless noted; further: nearly all actives have a fitted effect of over 70% in size
# Es-2 = test: Primary qHTS to identify gynecologic anti-cancer compounds using libraries of approved drugs and bioactive compounds (AID 1345084); settings: Gynecologic cancer cell panel viability, ATPlite luminescence, 48 h; series mostly up to 57.5 µM; further: nearly all actives have a fitted effect of over 55% in size
# Outline: as §1
# JEG-3 = test: as above; settings: Gynecologic cancer cell panel viability, ATPlite luminescence, 48 h; series mostly up to 57.5 µM
# Outline: as §1
# HeLa = test: as above; settings: Gynecologic cancer cell panel viability, ATPlite luminescence, 48 h; series mostly up to 57.5 µM
# Outline: as §1
# OV90 = test: as above; settings: Gynecologic cancer cell panel viability, ATPlite luminescence, 48 h; series mostly up to 57.5 µM
# Outline: as §1
# PA-1 = test: as above; settings: Gynecologic cancer cell panel viability, ATPlite luminescence, 48 h; series mostly up to 57.5 µM
# Outline: as §1
# Tov112D = test: as above; settings: Gynecologic cancer cell panel viability, ATPlite luminescence, 48 h; series mostly up to 57.5 µM
# Outline: as §1
# Potency means the concentration at half of the fitted maximal effect; tags describe the fitted curve by direction and shape.
smiles,measurement,setting,value
C=C[C@H]1C(O[C@@H]2O[C@H](CO)[C@@H](O)[C@H](O)[C@H]2O)OC=C2C(=O)N3CCc4c([nH]c5ccccc45)C3CC21 (some centres not stated),Potency,[1],inactive
same,Potency,[2],inactive
same,Potency,[3],inactive
same,Potency,HaCat,"inconclusive: 14.2 µM [inhibitor, single point]"
same,Potency,C33A,inactive
C[S+](CC[C@H](N)C(=O)[O-])C[C@H]1O[C@@H](n2cnc3c(N)ncnc32)[C@H](O)[C@@H]1O (some centres not stated),Potency,[4],inactive
same,Potency,HaCat,"inconclusive: 18.4 µM [inhibitor, single point]"
same,Potency,CAOV3,"inconclusive: 31.6 µM [rising, single point]"
same,Potency,SKOV3,inactive
same,Potency,Tov-21-G,inactive
C/C(=C\C(=O)C(C)C1CCC2C3=C(CCC21C)C1(C)CCC(=O)C(C)(C)C1(O)CC3)C(C)(C)O (configuration not stated),Potency,[1],"inconclusive: 15.9 µM [inhibitor, partial curve, poor fit]"
same,Potency,[5],"inconclusive: 14.1 µM [inhibitor, partial curve]"
same,Potency,[2],active: 14.1 µM
same,Potency,[3],"inconclusive: 14.2 µM [inhibitor, partial curve, poor fit]"
same,Potency,[6],"inconclusive: 10 µM [inhibitor, single point]"
same,Potency,[4],"inconclusive: 18.4 µM [inhibitor, single point]"
same,max response,HaCat,inactive: 1.49%
same,Potency,CAOV3,"inconclusive: 7.08 µM [cytotoxic, partial curve, poor fit]"
same,Potency,SKOV3,"inconclusive: 11.2 µM [cytotoxic, single point]"
COc1c2ccoc2cc2oc(CO[C@@H]3O[C@H](CO)[C@@H](O)[C@H](O)[C@H]3O)cc(=O)c12,Potency,HaCat,"inconclusive: 18 µM [inhibitor, single point]"
same,Potency,CAOV3,"inconclusive: 28.2 µM [rising, single point]"
O=C(O)Cc1ccc2oc(-c3ccc(NC(=O)/C=C/c4ccc(Br)cc4)c(F)c3)nc2c1,Potency,[2],active: 3.16 µM
same,max response,HaCat,inactive: 2.81%
same,Potency,CAOV3,inactive
same,Potency,Es-2,inactive
same,Potency,JEG-3,inactive
COC(=O)C1=CO[C@@H](O[C@@H]2O[C@H](CO)[C@@H](O)[C@H](O)[C@H]2O)[C@@H]2C(CO)=CC[C@]12O,Potency,HaCat,"inconclusive: 3.17 µM [inhibitor, single point]"
same,Potency,CAOV3,"inconclusive: 17.8 µM [rising, single point]"
CC1CCC2C(C(=O)O)=COC(O[C@@H]3O[C@H](CO)[C@@H](O)[C@H](O)[C@H]3O)C12 (some centres not stated),Potency,[1],inactive
same,Potency,[5],"inconclusive: 31.6 µM [inhibitor, partial curve, poor fit]"
same,Potency,[2],"inconclusive: 14.1 µM [inhibitor, partial curve, poor fit]"
same,Potency,[3],inactive
same,Potency,[4],active: 5.85 µM
same,max response,HaCat,inactive: -2.91%
same,Potency,CAOV3,"inconclusive: 31.6 µM [cytotoxic, single point]"
same,Potency,HeLa,"inconclusive: 31.6 µM [cytotoxic, single point]"
same,Potency,JEG-3,"inconclusive: 28.2 µM [cytotoxic, single point]"
same,Potency,OV90,inactive
same,Potency,PA-1,inactive
same,Potency,SKOV3,"inconclusive: 22.4 µM [cytotoxic, single point]"
CC1(C)S[C@@H]2[C@H](NC(=O)[C@H](N)c3ccc(O)cc3)C(=O)N2[C@H]1C(=O)O,Potency,[4],"inconclusive: 13.4 µM [inhibitor, partial curve, poor fit]"
same,Potency,HaCat,"inconclusive: 0.13 µM [inhibitor, full curve, poor fit]"
same,Potency,C33A,"inconclusive: 31.6 µM [rising, single point]"
same,Potency,SKOV3,inactive
Cc1cc(C)c(S(=O)(=O)N(Cc2ccc(-c3cccc(S(C)(=O)=O)c3)cc2)Cc2ccc(C(F)(F)F)o2)c(C)c1,max response,HaCat,inactive: 2.94%
same,Potency,CAOV3,"inconclusive: 39.8 µM [rising, single point]"
same,Potency,SKOV3,"inconclusive: 35.5 µM [rising, single point]"
O=C(O)c1ccccc1OP(=O)(O)O,Potency,[1],inactive
same,outcome,HaCat,inactive
same,Potency,CAOV3,inactive
same,Potency,SKOV3,inactive
COc1ccccc1Oc1c(NS(=O)(=O)c2ccc(C)cn2)nc(-c2ccncc2)nc1OC,Potency,[5],"inconclusive: 44.7 µM [inhibitor, partial curve]"
same,Potency,[2],"inconclusive: 39.8 µM [inhibitor, single point]"
same,outcome,HaCat,inactive
same,Potency,C33A,inactive
same,Potency,SKOV3,"inconclusive: 20 µM [rising, partial curve, poor fit]"
Nc1nc(NCC2CCC(CNS(=O)(=O)c3cccc4ccccc34)CC2)nc2ccccc12 (configuration not stated),Potency,[1],"inconclusive: 29.1 µM [inhibitor, single point]"
same,Potency,[6],active: 2.58 µM
same,Potency,HaCat,"inconclusive: 29.1 µM [inhibitor, single point]"
same,Potency,CAOV3,"inconclusive: 39.8 µM [cytotoxic, single point]"
same,Potency,OV90,"inconclusive: 17.8 µM [cytotoxic, partial curve, poor fit]"
same,Potency,SKOV3,"inconclusive: 39.8 µM [cytotoxic, single point]"
same,Potency,Tov112D,"inconclusive: 39.8 µM [cytotoxic, single point]"
C[C@@H]1CC[C@]2(C(=O)O[C@@H]3O[C@H](CO)[C@@H](O)[C@H](O)[C@H]3O)CC[C@]3(C)C(=CCC4[C@@]5(C)C[C@@H](O)[C@H](O)[C@](C)(C(=O)O)C5CC[C@]43C)[C@@H]2[C@]1(C)O (some centres not stated),Potency,[3],inactive
same,outcome,HaCat,inactive
same,Potency,CAOV3,"inconclusive: 1.12 µM [cytotoxic, single point]"
same,Potency,PA-1,"inconclusive: 1.12 µM [rising, partial curve, poor fit]"

# Reference: PubChem BioAssay (NCATS)
